Patent US11178870B2 (priority 2017, dated 2021)

Key:
Format in all cases: in vivo
[1] = system: Blumeria graminis f. sp. hordei; assay: Test Example D: Powdery mildew on barley; settings: for control value, Test D (powdery mildew on barley): Table 7, Test D; for Test D control value (powdery mildew on barley): class of control value, Table 7; for Test D control value: Powdery mildew on barley
Plasmopara viticola = assay: Test Example G: Downy mildew on vine; settings: for control value, Test G (downy mildew on vine): 250 ppm sprayed (2.5 ml/pot) before inoculation, assessed 7 to 10 days after inoculation; for Test G control value (downy mildew on vine): 250 ppm spray, investigated 7 to 10 days after inoculation; for Test G control value (downy mildew on vine) / Test G control value: 2.5 ml/pot; for Test G control value: Downy mildew on vine, 250 ppm sprayed, 7 to 10 days after inoculation
Alternaia brassicicola = assay: Test Example C: Alternaria sooty spot on cabbage; settings: for control value, Test C (Alternaria sooty spot on cabbage): Table 7, Test C; for Test C control value (Alternaria sooty spot on cabbage): class of control value, Table 7; for Test C control value: Alternaria sooty spot on cabbage
Botrytis cinerea = assay: Test Example B: Gray mold on tomato; settings: for control value, Test B (gray mold on tomato): Table 7, Test B; for Test B control value (gray mold on tomato): class of control value, Table 7; for Test B control value: Gray mold on tomato
Puccinia recondita = assay: Test Example E: Brown rust on wheat; settings: for control value, Test E (brown rust on wheat): Table 7, Test E; for Test E control value (brown rust on wheat): class of control value, Table 7; for Test E control value: Brown rust on wheat

O=c1ccc(-c2cc(Br)sc2Br)c(-c2c(F)cccc2F)n1CC(F)F [Compound 324]
control value, Test D (powdery mildew on barley) [1]: L (L shows the control value of 50% or less) | control value, Test G (downy mildew on vine) (Plasmopara viticola): H (H shows the control value more than 50%) | control value, Test C (Alternaria sooty spot on cabbage) (Alternaia brassicicola): L (L shows the control value of 50% or less) | control value, Test B (gray mold on tomato) (Botrytis cinerea): L (L shows the control value of 50% or less) | control value, Test E (brown rust on wheat) (Puccinia recondita): L (L shows the control value of 50% or less)

Cc1cnn(-c2cc(Cl)c(=O)n(C)c2-c2ccccc2F)c1Cl [Compound 488]
Test D control value (powdery mildew on barley) [1]: H (H shows the control value more than 50%) | Test G control value (downy mildew on vine) (Plasmopara viticola): H (H shows the control value more than 50%) | Test C control value (Alternaria sooty spot on cabbage) (Alternaia brassicicola): H (H shows the control value more than 50%) | Test B control value (gray mold on tomato) (Botrytis cinerea): H (H shows the control value more than 50%) | Test E control value (brown rust on wheat) (Puccinia recondita): H (H shows the control value more than 50%)

COc1cc(F)c(-c2c(-n3cc(Cl)cn3)cc(Cl)c(=O)n2C)c(F)c1 [Compound 177]
Test D control value [1]: H (H shows the control value more than 50%) | Test G control value (Plasmopara viticola): H (H shows the control value more than 50%) | Test C control value (Alternaia brassicicola): H (H shows the control value more than 50%) | Test B control value (Botrytis cinerea): H (H shows the control value more than 50%) | Test E control value (Puccinia recondita): H (H shows the control value more than 50%)

CCn1c(-c2c(F)cc(F)cc2F)c(-n2nc(C)c(Br)c2C)ccc1=O [Compound 76]
Test D control value [1]: H (H shows the control value more than 50%) | Test G control value (Plasmopara viticola): L (L shows the control value of 50% or less) | Test C control value (Alternaia brassicicola): H (H shows the control value more than 50%) | Test B control value (Botrytis cinerea): H (H shows the control value more than 50%) | Test E control value (Puccinia recondita): L (L shows the control value of 50% or less)

Cc1ccsc1-c1ccc(=O)n(CC(F)F)c1-c1c(F)cccc1F [Compound 385]
Test D control value (powdery mildew on barley) [1]: H (H shows the control value more than 50%) | Test G control value (downy mildew on vine) (Plasmopara viticola): H (H shows the control value more than 50%) | Test C control value (Alternaria sooty spot on cabbage) (Alternaia brassicicola): H (H shows the control value more than 50%) | Test B control value (gray mold on tomato) (Botrytis cinerea): H (H shows the control value more than 50%) | Test E control value (brown rust on wheat) (Puccinia recondita): H (H shows the control value more than 50%)

Cc1cnn(-c2cc(Br)c(=O)n(N)c2-c2ccc(F)cc2Cl)c1Cl [Compound 477]
Test D control value (powdery mildew on barley) [1]: L (L shows the control value of 50% or less) | Test G control value (downy mildew on vine) (Plasmopara viticola): L (L shows the control value of 50% or less) | Test C control value (Alternaria sooty spot on cabbage) (Alternaia brassicicola): H (H shows the control value more than 50%) | Test B control value (gray mold on tomato) (Botrytis cinerea): H (H shows the control value more than 50%) | Test E control value (brown rust on wheat) (Puccinia recondita): H (H shows the control value more than 50%)

O=c1c(Br)cc(-c2sccc2Cl)c(-c2c(F)cccc2F)n1CC(F)F [Compound 433]
Test D control value (powdery mildew on barley) [1]: H (H shows the control value more than 50%) | Test G control value (downy mildew on vine) (Plasmopara viticola): L (L shows the control value of 50% or less) | Test C control value (Alternaria sooty spot on cabbage) (Alternaia brassicicola): H (H shows the control value more than 50%) | Test B control value (gray mold on tomato) (Botrytis cinerea): H (H shows the control value more than 50%) | Test E control value (brown rust on wheat) (Puccinia recondita): H (H shows the control value more than 50%)

Cc1ccsc1-c1ccc(=O)n(C)c1-c1c(F)cccc1F [Compound 496]
Test D control value (powdery mildew on barley) [1]: L (L shows the control value of 50% or less) | Test G control value (downy mildew on vine) (Plasmopara viticola): H (H shows the control value more than 50%) | Test C control value (Alternaria sooty spot on cabbage) (Alternaia brassicicola): H (H shows the control value more than 50%) | Test B control value (gray mold on tomato) (Botrytis cinerea): H (H shows the control value more than 50%) | Test E control value (brown rust on wheat) (Puccinia recondita): H (H shows the control value more than 50%)

CCn1c(-c2ccc(F)cc2Br)c(-n2cc(C)cn2)ccc1=O [Compound 330]
control value, Test D (powdery mildew on barley) [1]: H (H shows the control value more than 50%) | control value, Test G (downy mildew on vine) (Plasmopara viticola): L (L shows the control value of 50% or less) | control value, Test C (Alternaria sooty spot on cabbage) (Alternaia brassicicola): H (H shows the control value more than 50%) | control value, Test B (gray mold on tomato) (Botrytis cinerea): H (H shows the control value more than 50%) | control value, Test E (brown rust on wheat) (Puccinia recondita): H (H shows the control value more than 50%)

CCOc1cc(F)c(-c2c(-n3cc(F)cn3)ccc(=O)n2CC)c(F)c1 [Compound 311]
control value, Test D (powdery mildew on barley) [1]: H (H shows the control value more than 50%) | control value, Test G (downy mildew on vine) (Plasmopara viticola): L (L shows the control value of 50% or less) | control value, Test C (Alternaria sooty spot on cabbage) (Alternaia brassicicola): H (H shows the control value more than 50%) | control value, Test B (gray mold on tomato) (Botrytis cinerea): H (H shows the control value more than 50%) | control value, Test E (brown rust on wheat) (Puccinia recondita): H (H shows the control value more than 50%)

Cc1cnn(-c2cc(Br)c(=O)n(N)c2-c2ccc(F)cc2F)c1Cl [Compound 376]
Test D control value (powdery mildew on barley) [1]: L (L shows the control value of 50% or less) | Test G control value (downy mildew on vine) (Plasmopara viticola): H (H shows the control value more than 50%) | Test C control value (Alternaria sooty spot on cabbage) (Alternaia brassicicola): L (L shows the control value of 50% or less) | Test B control value (gray mold on tomato) (Botrytis cinerea): H (H shows the control value more than 50%) | Test E control value (brown rust on wheat) (Puccinia recondita): H (H shows the control value more than 50%)

Cc1ccsc1-c1cc(Cl)c(=O)n(CC(F)F)c1-c1c(F)cccc1F [Compound 445]
Test D control value (powdery mildew on barley) [1]: H (H shows the control value more than 50%) | Test G control value (downy mildew on vine) (Plasmopara viticola): L (L shows the control value of 50% or less) | Test C control value (Alternaria sooty spot on cabbage) (Alternaia brassicicola): H (H shows the control value more than 50%) | Test B control value (gray mold on tomato) (Botrytis cinerea): H (H shows the control value more than 50%) | Test E control value (brown rust on wheat) (Puccinia recondita): H (H shows the control value more than 50%)

CCn1c(-c2ccc(N3CCCC3)cc2F)c(-n2ncc(C)c2Cl)cc(Br)c1=O [Compound 466]
Test D control value (powdery mildew on barley) [1]: L (L shows the control value of 50% or less) | Test G control value (downy mildew on vine) (Plasmopara viticola): L (L shows the control value of 50% or less) | Test C control value (Alternaria sooty spot on cabbage) (Alternaia brassicicola): H (H shows the control value more than 50%) | Test B control value (gray mold on tomato) (Botrytis cinerea): H (H shows the control value more than 50%) | Test E control value (brown rust on wheat) (Puccinia recondita): H (H shows the control value more than 50%)

CCn1c(-c2c(F)cccc2F)c(-c2ocnc2Br)cc(Cl)c1=O [Compound 49]
Test D control value [1]: H (H shows the control value more than 50%) | Test G control value (Plasmopara viticola): H (H shows the control value more than 50%) | Test C control value (Alternaia brassicicola): H (H shows the control value more than 50%) | Test B control value (Botrytis cinerea): H (H shows the control value more than 50%) | Test E control value (Puccinia recondita): H (H shows the control value more than 50%)

Cc1sccc1-c1ccc(=O)n(C)c1-c1c(F)cccc1F [Compound 431]
Test D control value (powdery mildew on barley) [1]: L (L shows the control value of 50% or less) | Test G control value (downy mildew on vine) (Plasmopara viticola): L (L shows the control value of 50% or less) | Test C control value (Alternaria sooty spot on cabbage) (Alternaia brassicicola): H (H shows the control value more than 50%) | Test B control value (gray mold on tomato) (Botrytis cinerea): H (H shows the control value more than 50%) | Test E control value (brown rust on wheat) (Puccinia recondita): H (H shows the control value more than 50%)

CCn1c(-c2c(F)cc(F)cc2F)c(-n2cnc(Cl)c2Cl)cc(Br)c1=O [Compound 139]
Test D control value [1]: H (H shows the control value more than 50%) | Test G control value (Plasmopara viticola): H (H shows the control value more than 50%) | Test C control value (Alternaia brassicicola): H (H shows the control value more than 50%) | Test B control value (Botrytis cinerea): H (H shows the control value more than 50%) | Test E control value (Puccinia recondita): H (H shows the control value more than 50%)

COc1ccc(-c2c(-n3cc(Cl)cn3)cc(Cl)c(=O)n2CC(F)F)c(Cl)c1 [Compound 239]
control value, Test D (powdery mildew on barley) [1]: H (H shows the control value more than 50%) | control value, Test G (downy mildew on vine) (Plasmopara viticola): L (L shows the control value of 50% or less) | control value, Test C (Alternaria sooty spot on cabbage) (Alternaia brassicicola): H (H shows the control value more than 50%) | control value, Test B (gray mold on tomato) (Botrytis cinerea): H (H shows the control value more than 50%) | control value, Test E (brown rust on wheat) (Puccinia recondita): H (H shows the control value more than 50%)

CCn1c(-c2c(F)cc(F)cc2F)c(-n2cncn2)cc(Br)c1=O [Compound 47]
Test D control value [1]: H (H shows the control value more than 50%) | Test G control value (Plasmopara viticola): L (L shows the control value of 50% or less) | Test C control value (Alternaia brassicicola): H (H shows the control value more than 50%) | Test B control value (Botrytis cinerea): H (H shows the control value more than 50%) | Test E control value (Puccinia recondita): H (H shows the control value more than 50%)

CCn1c(-c2c(F)cc(F)cc2F)c(-n2cc(F)cn2)ccc1=O [Compound 191]
control value, Test D (powdery mildew on barley) [1]: H (H shows the control value more than 50%) | control value, Test G (downy mildew on vine) (Plasmopara viticola): L (L shows the control value of 50% or less) | control value, Test C (Alternaria sooty spot on cabbage) (Alternaia brassicicola): H (H shows the control value more than 50%) | control value, Test B (gray mold on tomato) (Botrytis cinerea): H (H shows the control value more than 50%) | control value, Test E (brown rust on wheat) (Puccinia recondita): H (H shows the control value more than 50%)

CCn1c(-c2c(F)cccc2F)c(-c2ccsc2Br)cc(Cl)c1=O [Compound 45]
Test D control value [1]: H (H shows the control value more than 50%) | Test G control value (Plasmopara viticola): L (L shows the control value of 50% or less) | Test C control value (Alternaia brassicicola): H (H shows the control value more than 50%) | Test B control value (Botrytis cinerea): H (H shows the control value more than 50%) | Test E control value (Puccinia recondita): H (H shows the control value more than 50%)

CCn1c(-c2ccccc2Br)c(-n2cc(Cl)cn2)cc(Br)c1=O [Compound 196]
control value, Test D (powdery mildew on barley) [1]: L (L shows the control value of 50% or less) | control value, Test G (downy mildew on vine) (Plasmopara viticola): L (L shows the control value of 50% or less) | control value, Test C (Alternaria sooty spot on cabbage) (Alternaia brassicicola): H (H shows the control value more than 50%) | control value, Test B (gray mold on tomato) (Botrytis cinerea): H (H shows the control value more than 50%) | control value, Test E (brown rust on wheat) (Puccinia recondita): H (H shows the control value more than 50%)
